Experimental findings from patent US6335355B1, “Crop protection products” (Syngenta Investment Corporation, priority 1995, dated 2002) are described below.

Like-named read-outs stand apart in the source and are kept apart here.

This experiment relates to Colletotrichum sp. (anthracnose).

As for `CSC(=O)c1cccc2nnsc12` [compound ID, benzothiadiazole-7-carboxylic acid thiomethyl ester], the “% action O (found)” value (Example B10, 5 mg a.i. per liter (ppm)) is 55%.

“manganese ethylenebis (dithiocarbamate) polymer-zinc complex [compound IIL]”: the “% action O (found)” value (Example B10, 100 mg a.i. per liter (ppm)) was determined as 12%.
